# Test results reported in PubChem BioAssay AID504339 (National Center for Advancing Translational Sciences (NCATS), 2011).
# Among all 390,000 compounds or so, about 17,000 (4.4%) were called active. This list was built around the results that the source calls inconclusive (neither active nor inactive); the mix of calls is not that of the screen. The call rests on the fitted dose curve; in most records, active means well fitted inhibition curve with a large enough effect; inconclusive means small, poorly fitted or top-dose-only effect; inactive means no such curve, though single readings can be large or run the other way. Potencies of inconclusive entries are doubtful fits and often do not repeat.
# Target: Lysine-specific demethylase 4A (Homo sapiens) (UniProt O75164)
# Test: qHTS Assay for Inhibitors of JMJD2A-Tudor Domain; further: nearly all actives have a fitted effect of over 50% in size
# Conditions: AlphaScreen JMJD2A-Tudor / H3K4me3 peptide binding; activity change, negative = inhibition: at 114 µM (top of the series)
# On the % scale 0 is the no-effect control and ±100 the full control effect; potency means the concentration at half of the fitted maximal effect; tags describe the fitted curve by direction and shape.
# Chain of UniProt O75164 (O75164 whole entry, looked up, the tested form may be a part): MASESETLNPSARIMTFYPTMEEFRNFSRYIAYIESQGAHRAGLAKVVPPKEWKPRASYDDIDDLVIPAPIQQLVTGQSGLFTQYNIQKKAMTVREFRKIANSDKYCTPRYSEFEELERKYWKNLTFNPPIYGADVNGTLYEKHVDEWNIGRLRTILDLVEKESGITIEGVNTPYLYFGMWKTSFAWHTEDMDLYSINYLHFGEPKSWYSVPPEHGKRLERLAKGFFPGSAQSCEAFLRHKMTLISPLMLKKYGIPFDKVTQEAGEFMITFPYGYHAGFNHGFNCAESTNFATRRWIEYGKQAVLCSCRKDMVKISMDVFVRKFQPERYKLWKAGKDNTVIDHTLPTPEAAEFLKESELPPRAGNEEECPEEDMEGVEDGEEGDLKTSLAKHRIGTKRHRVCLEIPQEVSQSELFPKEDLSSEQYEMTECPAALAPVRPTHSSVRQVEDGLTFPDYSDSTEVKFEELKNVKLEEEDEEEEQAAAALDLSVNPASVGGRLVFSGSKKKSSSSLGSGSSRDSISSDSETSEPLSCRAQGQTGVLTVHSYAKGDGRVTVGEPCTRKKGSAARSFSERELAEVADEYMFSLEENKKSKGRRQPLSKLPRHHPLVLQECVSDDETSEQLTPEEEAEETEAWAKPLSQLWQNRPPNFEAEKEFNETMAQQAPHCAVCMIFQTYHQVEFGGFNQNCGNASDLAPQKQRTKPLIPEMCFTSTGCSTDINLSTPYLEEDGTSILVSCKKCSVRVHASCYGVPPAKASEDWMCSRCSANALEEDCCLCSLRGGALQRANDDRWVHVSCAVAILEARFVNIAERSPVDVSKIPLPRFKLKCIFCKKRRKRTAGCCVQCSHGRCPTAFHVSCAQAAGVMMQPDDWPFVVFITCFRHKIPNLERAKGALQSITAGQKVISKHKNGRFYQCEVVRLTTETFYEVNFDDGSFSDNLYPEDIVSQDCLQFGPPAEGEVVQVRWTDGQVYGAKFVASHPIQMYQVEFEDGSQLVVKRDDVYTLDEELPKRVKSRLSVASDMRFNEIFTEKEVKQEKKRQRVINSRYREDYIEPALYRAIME
Structure (SMILES),"activity change, negative = inhibition",Potency
O=C(O)CC1c2ccccc2CCN1S(=O)(=O)c1cccs1 (centres undefined),inactive: 11.7%,
CC(C)CCSc1nc(N2CCOCC2)c2c(c1C#N)CC(C)(C)OC2,inactive: 14.8%,
COc1ccc(S(=O)(=O)N2CCC(N3CCCCC3)CC2)cc1,,active: 8.91 µM
O=C(CSc1nnc(SCc2ccccc2)s1)N/N=C/C=C/c1ccco1,,active: 39.8 µM
CC(NC(=O)/C(C#N)=C/c1ccc(Cl)c([N+](=O)[O-])c1)c1ccccc1 (centres undefined),,"inconclusive: 25.1 µM [inhibitor, full curve]"
O=c1c2sc3ccccc3c2n(Cc2cccc(C(F)(F)F)c2)c(=O)n1-c1ccccc1,inactive: -9.56%,
COc1ccc(-n2c(SC)nc3sc4c(c3c2=O)CCN(C(C)=O)C4)cc1,inactive: -13.3%,
Cc1ccc2nc(-c3ccc(NC(=O)COC(=O)c4ccc(=O)[nH]c4)cc3)sc2c1,,active: 44.7 µM
FC(F)(F)c1cccc(N2CCN(c3nc4ccccc4n4cnnc34)CC2)c1,inactive: -6.55%,
Cc1cccc(-n2nc(C)c3c2NC2=C(C(=O)CCC2)C3c2ccccn2)c1 (centres undefined),,"inconclusive: 20 µM [inhibitor, full curve, poor fit]"
Cc1ccc(NC(=O)CSc2nnc(-c3cc4occc4n3C)n2-c2ccccc2C)c(C)c1,,"inconclusive: 10 µM [inhibitor, full curve]"
CCN(CC)S(=O)(=O)c1cccc(C(=O)N/N=C/c2ccccn2)c1,,"inconclusive: 100 µM [inhibitor, single point]"
CC(=O)C1=C(C)NC(SCC(N)=O)=C(C#N)C1c1ccco1 (centres undefined),inactive: -15.2%,
Oc1c(Cl)cc(Cl)c2cccnc12,,active: 28.2 µM
CCNC(=S)N/N=C(\C)c1ccc2ccccc2c1OC(F)F,,"inconclusive: 89.1 µM [inhibitor, partial curve, poor fit]"
CCOc1ccccc1CNc1nc2ccccc2n1C,inactive: -5.17%,
COc1ccc(OC)c(CN2CCC(C(=O)N(C)CCc3ccc(OC)c(OC)c3)CC2)c1,,active: 22.4 µM
Cc1cc(C)n2c(Nc3ccc4c(c3)OCCO4)c(-c3ccccc3)nc2n1,,"inconclusive: 56.2 µM [inhibitor, partial curve]"
COc1ccc(N2CCN(CCCNC(=O)c3nnc(Cc4ccccc4Cl)o3)CC2)cc1,,active: 50.1 µM
CCC(=O)c1ccccc1OCCCN1CCC(Cc2ccccc2)CC1,,active: 35.5 µM
COc1ccc(-c2c(-c3cc(OC)cc(OC)c3)n(C)c3ccc(-c4ccc(N(C)C)nc4)cc23)cc1,,"inconclusive: 14.1 µM [inhibitor, partial curve]"
CCN(CC)CCN(C(=O)c1cc(Cl)sc1Cl)c1nc2cc3c(cc2s1)OCO3,,"inconclusive: 25.1 µM [inhibitor, partial curve]"
COC(=O)CCC(=O)OC1(C)C(=O)C2=CN(C3CC3)C(c3ccc(OC)cc3)=CC2=C(Br)C1=O (centres undefined),,"inconclusive: 25.1 µM [inhibitor, partial curve]"
CCOc1cc(/C=N\NC(=O)OC(C)(C)C)ccc1OC(=O)c1ccco1,,active: 20 µM
C/C(=N\N(c1ccccc1)c1ccccc1)c1ccc(N)cc1,,active: 22.4 µM

Structure (SMILES),"activity change, negative = inhibition",Potency
COc1ccccc1/C(C)=N/Oc1cc(N)cc([N+](=O)[O-])c1,,"inconclusive: 56.2 µM [inhibitor, partial curve]"
COc1ccc(CNc2oc(COc3ccc(Cl)cc3)nc2C#N)cc1,,"inconclusive: 39.8 µM [inhibitor, partial curve]"
O=C(N/N=C/C(Cl)=C/c1ccc([N+](=O)[O-])cc1)C(=O)Nc1cccc(C(=O)O)c1,,"inconclusive: 70.8 µM [inhibitor, partial curve]"
O=C(c1ccccc1)N1CCC(c2nc3ccccc3o2)CC1,inactive: -2.65%,
COc1ccc(CCNCC(=O)N2C(C)CCCC2C)cc1OC (centres undefined),,active: 0.794 µM
COc1ccc(S(=O)(=O)N2CCN(Cc3cc(=O)n4ccccc4n3)CC2)cc1,inactive: 7.9%,
CN1CCN(C2=C(Cl)C(=O)c3ccccc3C2=O)CC1,,active: 22.4 µM
Cn1cnnc1Sc1ccc(C(=O)NCCC(c2ccccc2)c2ccccc2)cc1[N+](=O)[O-],,"inconclusive: 50.1 µM [inhibitor, partial curve, poor fit]"
Cc1cccc(/C=C/C(=O)c2cc(Br)ccc(=O)c2O)c1,,"inconclusive: 50.1 µM [inhibitor, partial curve]"
CCOC(=O)C1CCN(Cc2ccc(OCc3ccccc3)cc2)CC1,,active: 28.2 µM
COc1ccc(C(C[N+](=O)[O-])C2(c3ccc(OC)c(OC)c3)C(=O)c3ccccc3C2=O)cc1 (centres undefined),,"inconclusive: 50.1 µM [inhibitor, partial curve]"
Cc1ccccc1CN1CCN(c2nc3ccccc3s2)CC1,inactive: 34.5%,
COc1cc(C(=O)OCC(=O)N2CCCC2)cc2c1OCCO2,inactive: -10.1%,
COCCN1C(=O)N(c2cccc(OC)c2)C(=O)C1CC(=O)Nc1ccccc1 (centres undefined),inactive: 0.331%,
CCOc1ccccc1C(=O)NC1CC2CCCC(C1)N2C1CC1 (centres undefined),inactive: -5.41%,
O=C(O)COc1ccc(/C=N/NC(=O)COc2nsnc2N2CCOCC2)cc1,inactive: -13.7%,
O=C(c1ccc(Oc2ccccc2)cc1)c1nc2c(n1O)CCCC2,,"inconclusive: 35.5 µM [inhibitor, partial curve]"
Cc1cc(C(=O)OCC(=O)NCc2ccccc2Cl)c(C)o1,inactive: -16.9% [at 57.1 µM],
CC(O)CNCCCOc1ccccc1OCc1ccccc1 (centres undefined),,active: 3.16 µM
O=C(O)c1ccccc1SC1CC(=O)N(c2ccccc2)C1=O (centres undefined),,"inconclusive: 89.1 µM [inhibitor, partial curve, poor fit]"
COc1ccc(C2c3[nH]c4ccccc4c3CCN2C(=O)c2cc3ncccn3n2)c(F)c1 (centres undefined),,"inconclusive: 39.8 µM [inhibitor, partial curve]"
Cc1ccc(Cn2c(C(C)Nc3nc(-c4ccc(Cl)c([N+](=O)[O-])c4)cs3)nc3cc(C(F)(F)F)ccc32)cc1 (centres undefined),,"inconclusive: 56.2 µM [inhibitor, partial curve]"
CCCN1CNc2c(c(=O)[nH]c(=S)n2CCc2ccc(OC)cc2)C1,inactive: -19.7%,
CCOc1cc(/C=C2\C(=N)N3N=C(N4CCCCC4)SC3=NC2=O)ccc1OC(=O)c1ccco1,,"inconclusive: 56.2 µM [inhibitor, partial curve]"
